# The other results are listed elsewhere or left out.
# B1: Microvirin-2 (Microcystis aeruginosa) (protein)
# chain: MPNFSHTCSSINYDPDSTILSAECQARDGEWLPTELRLSDHIGNIDGELQFGDQNFQETCQDCHLEFGDGEQSVWLVCTCQTMDGEWKSTQILLDSQIDNNDSQLEIGGSMPNFSHTCSSINYDPDSTILSAECQARDGEWLPTELRLSDHIGNIDGELQFGDQNFQETCQDCHLEFGDGEQSVWLVCTCQTMDGEWKSTQILLDSQIDNNDSQLEIG
# Legend:
# Test in all cases: glycan array binding signal (z-score within array); higher = stronger binding
# Settings in all cases: glycan notation: IUPAC condensed, linker removed
# [1] = target: Fuc(a1-2)Gal(b1-4)[Fuc(a1-3)]GlcNAc
# How it was run: (§1)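 The Consortium for Functional Glycomics database supplied 3228 glycan arrays, of which those lacking an available protein sequence were dropped. The binding signal, a within-array Z-score, was averaged across arrays of the same protein sequence and across linkers. Negative scores can be read as non-binding.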
# [2] = target: Fuc(a1-2)Gal(b1-4)[Fuc(a1-3)]GlcNAc(b1-2)Man(a1-3)[Fuc(a1-2)Gal(b1-4)[Fuc(a1-3)]GlcNAc(b1-2)Man(a1-6)]Man(b1-4)GlcNAc(b1-4)[Fuc(a1-6)]GlcNAc
# How it was run: as §1
# [3] = target: Fuc(a1-2)Gal(b1-4)[Fuc(a1-3)]GlcNAc(b1-2)[Fuc(a1-2)Gal(b1-4)[Fuc(a1-3)]GlcNAc(b1-4)]Man(a1-3)[Fuc(a1-2)Gal(b1-4)[Fuc(a1-3)]GlcNAc(b1-2)Man(a1-6)]Man(b1-4)GlcNAc(b1-4)GlcNAc
# How it was run: as §1
# [4] = target: Fuc(a1-2)Gal(b1-4)[Fuc(a1-3)]GlcNAc(b1-3)Gal(b1-4)[Fuc(a1-3)]GlcNAc
# How it was run: as §1
# [5] = target: Fuc(a1-2)Gal(b1-4)[Fuc(a1-3)]GlcNAc(b1-3)Gal(b1-4)[Fuc(a1-3)]GlcNAc(b1-3)Gal(b1-4)[Fuc(a1-3)]GlcNAc
# How it was run: as §1
# [6] = target: Fuc(a1-2)Gal(b1-4)[Fuc(a1-3)]GlcNAc(b1-3)GalNAc
# How it was run: as §1
# [7] = target: Fuc(a1-2)Gal(b1-4)[Fuc(a1-3)]GlcNAc(b1-3)[Neu5Ac(a2-6)Gal(b1-4)GlcNAc(b1-6)]Gal(b1-4)Glc
# How it was run: as §1
# [8] = target: Fuc(a1-2)Gal3S(b1-4)GlcNAc
# How it was run: as §1
# [9] = target: Fuc(a1-2)Gal6S(b1-3)GlcNAc
# How it was run: as §1
# [10] = target: Fuc(a1-2)Gal6S(b1-3)GlcNAc6S
# How it was run: as §1
# Fuc(a1-2)Gal6S(b1-4)Glc = target: Fuc(a1-2)Gal6S(b1-4)Glc
# How it was run: as §1
# [11] = target: Fuc(a1-2)Gal6S(b1-4)Glc6S
# How it was run: as §1
# Fuc(a1-2)[Gal(a1-3)]Gal = target: Fuc(a1-2)[Gal(a1-3)]Gal
# How it was run: as §1
# [12] = target: Fuc(a1-2)[Gal(a1-3)]Gal(b1-3)GalNAc
# How it was run: as §1
# [13] = target: Fuc(a1-2)[Gal(a1-3)]Gal(b1-3)GalNAc(b1-3)Gal(a1-4)Gal(b1-4)Glc
# How it was run: as §1
# [14] = target: Fuc(a1-2)[Gal(a1-3)]Gal(b1-3)GlcNAc
# How it was run: as §1
# [15] = target: Fuc(a1-2)[Gal(a1-3)]Gal(b1-3)GlcNAc(b1-2)Man(a1-3)[Fuc(a1-2)[Gal(a1-3)]Gal(b1-3)GlcNAc(b1-2)Man(a1-6)]Man(b1-4)GlcNAc(b1-4)GlcNAc
# How it was run: as §1
# [16] = target: Fuc(a1-2)[Gal(a1-3)]Gal(b1-3)GlcNAc(b1-2)Man(a1-3)[Fuc(a1-2)[Gal(a1-3)]Gal(b1-3)GlcNAc(b1-2)Man(a1-6)]Man(b1-4)GlcNAc(b1-4)[Fuc(a1-6)]GlcNAc
# How it was run: as §1
# [17] = target: Fuc(a1-2)[Gal(a1-3)]Gal(b1-3)GlcNAc(b1-3)GalNAc
# How it was run: as §1
# [18] = target: Fuc(a1-2)[Gal(a1-3)]Gal(b1-3)GlcNAc(b1-6)GalNAc
# How it was run: as §1
# [19] = target: Fuc(a1-2)[Gal(a1-3)]Gal(b1-4)Glc
# How it was run: as §1
# [20] = target: Fuc(a1-2)[Gal(a1-3)]Gal(b1-4)GlcNAc
# How it was run: as §1
# [21] = target: Fuc(a1-2)[Gal(a1-3)]Gal(b1-4)GlcNAc(b1-2)Man
# How it was run: as §1
# [22] = target: Fuc(a1-2)[Gal(a1-3)]Gal(b1-4)GlcNAc(b1-2)Man(a1-3)[Fuc(a1-2)[Gal(a1-3)]Gal(b1-4)GlcNAc(b1-2)Man(a1-6)]Man(b1-4)GlcNAc(b1-4)GlcNAc
# How it was run: as §1
# [23] = target: Fuc(a1-2)[Gal(a1-3)]Gal(b1-4)GlcNAc(b1-2)Man(a1-3)[Fuc(a1-2)[Gal(a1-3)]Gal(b1-4)GlcNAc(b1-2)Man(a1-6)]Man(b1-4)GlcNAc(b1-4)[Fuc(a1-6)]GlcNAc
# How it was run: as §1
# [24] = target: Fuc(a1-2)[Gal(a1-3)]Gal(b1-4)GlcNAc(b1-3)GalNAc
# How it was run: as §1
# [25] = target: Fuc(a1-2)[Gal(a1-3)]Gal(b1-4)GlcNAc(b1-6)GalNAc
# How it was run: as §1
# [26] = target: Fuc(a1-2)[Gal(a1-3)]Gal(b1-4)[Fuc(a1-3)]Glc
# How it was run: as §1
# [27] = target: Fuc(a1-2)[Gal(a1-3)]Gal(b1-4)[Fuc(a1-3)]GlcNAc
# How it was run: as §1
# [28] = target: Fuc(a1-2)[Gal(a1-3)]Gal(b1-4)[Fuc(a1-3)]GlcNAc(b1-3)GalNAc
# How it was run: as §1
# [29] = target: Fuc(a1-2)[Gal(a1-4)]Gal(b1-4)GlcNAc
# How it was run: as §1
# [30] = target: Fuc(a1-2)[GalNAc(a1-3)]Gal
# How it was run: as §1
# [31] = target: Fuc(a1-2)[GalNAc(a1-3)]Gal(b1-3)GalNAc(a1-3)[Fuc(a1-2)]Gal(b1-4)GlcNAc
# How it was run: as §1
# [32] = target: Fuc(a1-2)[GalNAc(a1-3)]Gal(b1-3)GalNAc(b1-3)Gal(a1-4)Gal(b1-4)Glc
# How it was run: as §1
# [33] = target: Fuc(a1-2)[GalNAc(a1-3)]Gal(b1-3)GlcNAc
# How it was run: as §1
# [34] = target: Fuc(a1-2)[GalNAc(a1-3)]Gal(b1-3)GlcNAc(b1-2)Man(a1-3)[Fuc(a1-2)[GalNAc(a1-3)]Gal(b1-3)GlcNAc(b1-2)Man(a1-6)]Man(b1-4)GlcNAc(b1-4)GlcNAc
# How it was run: as §1
# [35] = target: Fuc(a1-2)[GalNAc(a1-3)]Gal(b1-3)GlcNAc(b1-2)Man(a1-3)[Fuc(a1-2)[GalNAc(a1-3)]Gal(b1-3)GlcNAc(b1-2)Man(a1-6)]Man(b1-4)GlcNAc(b1-4)[Fuc(a1-6)]GlcNAc
# How it was run: as §1
# [36] = target: Fuc(a1-2)[GalNAc(a1-3)]Gal(b1-3)GlcNAc(b1-3)GalNAc
# How it was run: as §1
binder,measurement,setting,value
B1,glycan array binding signal (z-score),[1],-0.135
same,glycan array binding signal (z-score),[2],-0.105
same,glycan array binding signal (z-score),[3],-0.09
same,glycan array binding signal (z-score),[4],-0.128
same,glycan array binding signal (z-score),[5],-0.113
same,glycan array binding signal (z-score),[6],-0.087
same,glycan array binding signal (z-score),[7],-0.144
same,glycan array binding signal (z-score),[8],-0.132
same,glycan array binding signal (z-score),[9],-0.13
same,glycan array binding signal (z-score),[10],-0.076
same,glycan array binding signal (z-score),Fuc(a1-2)Gal6S(b1-4)Glc,-0.132
same,glycan array binding signal (z-score),[11],-0.133
same,glycan array binding signal (z-score),Fuc(a1-2)[Gal(a1-3)]Gal,-0.136
same,glycan array binding signal (z-score),[12],-0.134
same,glycan array binding signal (z-score),[13],-0.127
same,glycan array binding signal (z-score),[14],-0.138
same,glycan array binding signal (z-score),[15],-0.06
same,glycan array binding signal (z-score),[16],0.28
same,glycan array binding signal (z-score),[17],-0.132
same,glycan array binding signal (z-score),[18],-0.13
same,glycan array binding signal (z-score),[19],-0.128
same,glycan array binding signal (z-score),[20],-0.144
same,glycan array binding signal (z-score),[21],-0.123
same,glycan array binding signal (z-score),[22],-0.113
same,glycan array binding signal (z-score),[23],0.077
same,glycan array binding signal (z-score),[24],-0.133
same,glycan array binding signal (z-score),[25],-0.129
same,glycan array binding signal (z-score),[26],-0.14
same,glycan array binding signal (z-score),[27],-0.129
same,glycan array binding signal (z-score),[28],-0.126
same,glycan array binding signal (z-score),[29],-0.14
same,glycan array binding signal (z-score),[30],-0.139
same,glycan array binding signal (z-score),[31],-0.142
same,glycan array binding signal (z-score),[32],-0.14
same,glycan array binding signal (z-score),[33],-0.131
same,glycan array binding signal (z-score),[34],-0.127
same,glycan array binding signal (z-score),[35],-0.002
same,glycan array binding signal (z-score),[36],-0.108

# — the supplement of paper PMC8728848
